Test results taken from PubChem BioAssay AID445 (National Center for Advancing Translational Sciences (NCATS), 2006).
About 40 (0.04%) of roughly 110,000 compounds were called active. This list was built around the results that the source calls inconclusive (neither active nor inactive); the mix of calls is not that of the screen. The call rests on the fitted dose curve; in most records, active means well fitted curve in the direction sought with a large enough effect in the signal ratio (not every such curve was filed as active); inconclusive means small, poorly fitted or top-dose-only effect, or a change in a side signal; inactive means flat fitted curve, though single readings scatter; the % refers to the signal ratio. A potency beside an inconclusive call is a rough fit, not a confirmed value.

Test: IkB Signaling;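 on IkBa stabilization activation: 0% = basal untreated cells and 100% = reference inhibitor full response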
Conditions: ABC-DLBCL IkBa-CBG/CBR dual luciferase ratio (green luciferase fused to IkBa over red control in OCI-Ly3 lymphoma cells), 4 h; IkBa stabilization activation: at 57.1 µM (top of the series), scaled: untreated 0%, proteasome inhibitor 100% unless noted
In short: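 Luminescence ratio of IκBα-fused green versus native red beetle luciferase in OCI-Ly3 cells, 4 h post-doxycycline with compound; red signal alone, scaled from basal (0%) to zero light (-100%), flagged nonspecific or cytotoxic effects.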
Potency means the concentration at half of the fitted maximal effect.

Row | Structure (SMILES) | IkBa stabilization activation | Potency
1 | CCc1ccc(S(=O)(=O)c2nnn(-c3cccc(C)c3)c2N)cc1 | inconclusive: 10.6% [signal inhibitor] | 
2 | CCc1ccc(NC(=O)CCn2cnc3ccccc3c2=O)cc1 | inconclusive: -1.01% [signal inhibitor] | 
3 | COc1ccc(NC(=O)Cn2ccn(-c3ccccc3)c(=O)c2=O)cc1 | inconclusive: 1.03% [signal inhibitor] | 
4 | Cc1ccc(-c2nc3cccnc3s2)cc1NC(=O)Cc1ccccc1 | inconclusive: 1.62% [signal inhibitor] | 
5 | N#Cc1cccc(-c2nccc(-n3ccnc3)n2)c1 | inactive: -0.828% [at 11.4 µM, scaled: untreated 0%, proteasome inhibitor 100%] | 
6 | Cc1ccc(-n2nc(C)c3c(C(=O)Nc4ccc(Br)c(C)c4)cc(C)nc32)cc1 | inconclusive: 1.07% [signal inhibitor] | 
7 | COc1ccc(CCC(=O)NCc2ccc3c(c2)CCN3C(=O)c2ccc(C)cc2)cc1 | inconclusive: -0.88% [signal inhibitor] | 
8 | CSc1nnc(Cc2cc(=O)[nH]c(=O)[nH]2)n1-c1cccc(C)c1 |  | inconclusive: 25.1 µM [signal inhibitor, partial curve]
9 | COc1ccc(CNC(=O)CS(=O)Cc2nc(-c3ccccc3C)oc2C)cc1 (centres undefined) | inactive | 
10 | O=C(O)CCCCCN1C(=O)CSC1=S | inconclusive: 17.5% [signal inhibitor] | 
11 | O=C(Nc1nnc(S(=O)(=O)N2CCOCC2)s1)c1ccc(F)cc1 | inconclusive: 5.91% [signal inhibitor] | 
12 | N#Cc1cccc(NC(=O)c2ccc3c(c2)N(Cc2cccc(Cl)c2)C(=O)c2ccccc2S3(=O)=O)c1 | inconclusive: 2.48% [signal inhibitor] | 
13 | O=C(c1ccc(F)cc1F)N1CCC(c2noc(-c3ccc(S(=O)(=O)N4CCCC4)cc3)n2)CC1 | inconclusive: 1.72% [signal inhibitor] | 
14 | COc1ccc(C[C@@H]2C(=O)N[C@H](C)C(=O)N(C)[C@@H]3Cc4ccc(cc4)Oc4cc(ccc4O)C[C@H](C(=O)N[C@@H](C)C(=O)N[C@H](C)C(=O)N2C)N(C)C3=O)cc1 | inconclusive: -4.89% [signal inhibitor] [at 11.4 µM, scaled: untreated 0%, proteasome inhibitor 100%] | 
15 | Cc1ccccc1-c1noc(-c2ccccc2OCC(=O)Nc2ccccc2[N+](=O)[O-])n1 | inconclusive: -0.822% [signal inhibitor] | 
16 | NC(=O)SCC(=O)Nc1ccc(Cl)c(Cl)c1 |  | inconclusive: 25.1 µM [rising, partial curve]
17 | CCc1ccc(NC(=O)CN(Cc2ccccc2)S(=O)(=O)c2ccc3nc(C)sc3c2)cc1 | inconclusive: 0.526% [signal inhibitor] | 
18 | Cn1c(=O)oc2cc(S(=O)(=O)Nc3ccc(O)cc3)ccc21 | inconclusive: 4.04% [signal inhibitor] | 
19 | O=C1c2oc3ccc(Cl)cc3c(=O)c2C(c2cccc(Br)c2)N1CCO (centres undefined) |  | inconclusive: 20 µM [signal inhibitor, partial curve]
20 | Cc1ccc(C2C3=C(CC(C)(C)CC3=O)NC3=C2C(=O)CC(C)(C)C3)o1 | inactive | 

Row | Structure (SMILES) | IkBa stabilization activation | Potency
21 | Nc1ncnc2c1ncn2[C@@H]1CCCO1 | inactive | 
22 | O=C(Nc1ccccc1C(F)(F)F)N1CCN(c2ccc3nnc(-c4ccc(F)cc4)n3n2)CC1 | inconclusive: 0.187% [signal inhibitor] | 
23 | O=C(CCn1cnc2onc(-c3ccc(F)cc3)c2c1=O)N1CCN(c2cccc(Cl)c2)CC1 | inconclusive: 5.42% [signal inhibitor] | 
24 | N#Cc1c(NC(=O)CSc2n[nH]c(Cc3ccccc3)n2)oc(-c2ccccc2)c1-c1ccccc1 | inconclusive: 1.22% [signal inhibitor] | 
25 | Cn1c(=O)[nH]c(=O)c2c1nc(Br)n2CCOc1ccccc1 | inactive | 
26 | CCc1ccc(NC(=O)C(=O)NCC(c2cccnc2)N2CCOCC2)cc1 (centres undefined) | inconclusive: -3.08% [signal inhibitor] | 
27 | CCc1ccc(NC(=O)c2cc3c(=O)n(Cc4cccnc4)ccc3nc2C)cc1 | inconclusive: 0.164% [signal inhibitor] | 
28 | Cc1cccc(C(=O)Nc2cccc(OCc3cc(=O)n4c(C)csc4n3)c2)c1 | inconclusive: 4.96% [signal inhibitor] | 
29 | CC(C)c1nn2c(=O)cc(COC(=O)CNC(=O)c3ccccc3)nc2s1 | inactive | 
30 | O=C(c1cccc(F)c1)N1CCN(C(=O)c2cc(-c3ccc(Cl)cc3Cl)on2)CC1 | inconclusive: 3.16% [signal inhibitor] | 
31 | COc1ccc(NC(=O)Cc2csc(COc3cccc(C)c3)n2)c(OC)c1 | inconclusive: -0.753% [signal inhibitor] | 
32 | COc1ccc(Nc2nc(N)nc(CSc3nc4cc(OC)ccc4s3)n2)cc1 | inconclusive: 5.41% [signal inhibitor] | 
33 | O=C1C(Cl)=C(Sc2nnc3c4ccccc4c4ccccc4c3n2)C(=O)c2ccccc21 |  | inconclusive: 3.16 µM [signal inhibitor, partial curve]
34 | COc1ccc(-c2noc(CCC(=O)NCc3ccc(OC)cc3OC)n2)cc1 | inconclusive: 4.33% [signal inhibitor] | 
35 | O=C(O)c1ccccc1Nc1cccc(C(F)(F)F)c1 |  | inconclusive: 12.6 µM [signal inhibitor, partial curve]
36 | CCCN(CCC)CC(O)Cn1cc(/C=C/C(=O)c2ccc(OCC)cc2)c2ccccc21 (centres undefined) | inconclusive: 2.29% [signal inhibitor] | 
37 | CCn1cc(C(=O)N(C)Cc2ccccc2)c(=O)c2cc(S(=O)(=O)N3CCCCCC3)ccc21 | inactive | 
38 | CC[N+](C)(CC)CCC[n+]1c(-c2ccccc2)c2cc(N)ccc2c2ccc(N)cc21 | inconclusive: -2.45% [signal inhibitor] [at 25.6 µM, scaled: untreated 0%, proteasome inhibitor 100%] | 
39 | COc1ccccc1C1C=C(c2ccc(Cl)cc2)Nc2nc(-c3ccc(Cl)cc3)nn21 (centres undefined) | inconclusive: 3.37% [signal inhibitor] | 
